Experimental data as given in ChEMBL document CHEMBL4888484, “Replenishing the malaria drug discovery pipeline: Screening and hit evaluation of the MMV Hit Generation Library 1 (HGL1) against asexual blood stage Plasmodium falciparum ,using a nano luciferase reporter read-out” (2022).
In all, about 150,000 compounds went through this assay and about 540 (0.36%) showed an effect of 50% or more. This is one part of the list.

The molecules below were run on Plasmodium falciparum (assay: Primary screen in NF54 nanoGlo assay, in single point, at 2uM, 72h; a lower Z score goes with more inhibition). Details: timepoint 72 hour.
Assay type: functional, Erythrocyte
For `CN(C[C@H]1CCCN(C(=O)c2ccnc3c2ncn3C)C1)S(C)(=O)=O`, the “% Inhibition” value was 2% and the Z score was -0.37.
`FC1(F)CCN(c2nnc(C3CCC3)o2)CC1` was tested, and the “% Inhibition” value was 7% and the Z score was -0.91.
`CN1C[C@@H](NC(=O)c2csc(CCc3ccccc3)n2)CCC1=O` was tested, and the “% Inhibition” value was 2% and the Z score was -0.31.
With `O=C(CN1CCC[C@H]1C1CCCC1)NCC1CC1` the “% Inhibition” value was -4% and the Z score was 0.55.
With `CCOC(=O)c1cc(-c2cccc(NC(=O)COc3ccccc3)c2)n(-c2ccccc2OC)n1` the “% Inhibition” value was -6% and the Z score was 0.63.
`O=C(c1cccc(F)c1)N1CCCC[C@H](N2CCCC2)C1` was tested, and the “% Inhibition” value was -9% and the Z score was 0.82.
In the case of `COCCn1c(C)cnc1CC1CCN(C(=O)C(C)C)CC1`, the “% Inhibition” value is reported as -16% and the Z score is reported as 2.3.
`CC(C)[C@H](Cc1ccc(F)cc1)NC(=O)Nc1ccnn1C` was tested, and the “% Inhibition” value was 2% and the Z score was -0.48.
In the case of `CN(C)S(=O)(=O)Nc1cccc(N)c1`, the “% Inhibition” value is reported as -11% and the Z score is reported as 1.46.
For `C[C@@]1(C(=O)NC2CCCCCC2)COCc2nnc(C3CCCC3)n21`, the “% Inhibition” value was -3% and the Z score was 0.45.
In the case of `O=C(Nc1cccc(F)c1)N1CC2C3CCC(C3)C21` (configuration not stated), the “% Inhibition” value is reported as -9% and the Z score is reported as 1.61.
For `Cc1cc(C)c(OCCOCCN(C)C)c(Br)c1`, the “% Inhibition” value was -9% and the Z score was 1.2.
For `Cc1ccc2oc(-c3noc(C(=O)NCc4cccc(Br)c4)n3)c(C)c2c1`, the “% Inhibition” value was 4% and the Z score was -0.46.
With `COc1ccc(-c2ccc(C(C)=O)cn2)c(OC)n1` the “% Inhibition” value was -5% and the Z score was 0.76.
With `Cc1cc(C(=O)NC2CCN(C(=O)[C@H](Cc3ccccc3)N(C)C)CC2)c(C)o1` the “% Inhibition” value was -5% and the Z score was 0.7.
`Cc1cc(-c2nc3ccccc3s2)ccc1NC(=O)Nc1ccccc1Br` was tested, and the “% Inhibition” value was -3% and the Z score was 0.51.
With `COc1ccc(S(=O)(=O)N2C[C@@H]3C[C@H](C2)c2ccc(NC(=O)c4cnccn4)c(=O)n2C3)cc1` the “% Inhibition” value was -9% and the Z score was 1.76.
`COc1cccc(-n2ccnc2C2CC2)c1Cl` was tested, and the “% Inhibition” value was -4% and the Z score was 0.62.
With `COc1ccc(OCc2nc(C(=O)NCc3cccnc3N)co2)cc1` the “% Inhibition” value was 16% and the Z score was -1.9.
With `Cc1occc1C(=O)NCCn1ccnc1` the “% Inhibition” value was -6% and the Z score was 0.87.
With `O=C(c1cc(-c2ccncc2)n(-c2ccccc2)n1)N1CCCCCC1` the “% Inhibition” value was 4% and the Z score was -0.73.
In the case of `O=C(C[C@H](c1ccccc1F)c1cn(Cc2ccccc2)c2ccccc12)N1CCOCC1`, the “% Inhibition” value is reported as -3% and the Z score is reported as 0.48.
With `CCCS(=O)(=O)Nc1cc(N)c(F)cc1F` the “% Inhibition” value was -9% and the Z score was 1.42.
In the case of `COc1ccc(Cl)cc1C(=O)N[C@H]1CCc2nn(C)c(=O)cc2C1`, the “% Inhibition” value is reported as -18% and the Z score is reported as 3.11.
With `C#CCN(C)C(=O)c1ccncc1CC` the “% Inhibition” value was 0% and the Z score was -0.01.
For `Cc1ccc(-c2ccc3nnc(C)n3n2)cc1S(=O)(=O)N1CCOCC1`, the “% Inhibition” value was -1% and the Z score was 0.18.
`CCc1cc(CNC(=O)NCCNC(=O)C2CCCC2)on1` was tested, and the “% Inhibition” value was -4% and the Z score was 0.5.
In the case of `Cc1cc(N2CCC(n3c(=O)[nH]c4cccnc43)CC2)ncn1`, the “% Inhibition” value is reported as 22% and the Z score is reported as -2.81.
For `O=C(COc1ccccc1F)NC(CO)C(O)c1ccccn1` (configuration not stated), the “% Inhibition” value was -5% and the Z score was 0.69.
For `OCc1cc(CN[C@H]2CCCNc3ccccc32)ccc1F`, the “% Inhibition” value was 4% and the Z score was -0.52.
For `CN(C[C@H]1CCCCN1C)C(=O)c1cccc(-c2cc(F)c(F)cc2O)c1`, the “% Inhibition” value was 2% and the Z score was -0.29.
In the case of `Cc1nnnn1CCC(=O)N1CC[C@]23C(=O)N(CC(=O)N(C)CCCOc4cccc(c4)[C@H]12)c1ccccc13`, the “% Inhibition” value is reported as -6% and the Z score is reported as 1.09.
For `COC(=O)c1ccnc(-c2cc[nH]n2)c1`, the “% Inhibition” value was 6% and the Z score was -1.1.
`CCCC1CCCCC1NC(=O)N(C)CC` (configuration not stated) was tested, and the “% Inhibition” value was 0% and the Z score was 0.05.
With `CCc1ccc(CNC(=O)c2cccc(C(=O)NCc3ccc(CC)cc3)n2)cc1` the “% Inhibition” value was -15% and the Z score was 2.
`CC(C)N1C(=O)NC(C)(C2CCCN(CCc3ccccn3)C2)C1=O` (configuration not stated) was tested, and the “% Inhibition” value was -4% and the Z score was 0.84.
For `Cc1c(C)[n+]([O-])c([C@@H](c2cc(F)c(F)c(F)c2)C2C(=O)OC(C)(C)OC2=O)n1C`, the “% Inhibition” value was -8% and the Z score was 0.97.
`CC(=O)N[C@@H](c1nc(-c2ccc(C(F)F)nc2)no1)C(C)C` was tested, and the “% Inhibition” value was -3% and the Z score was 0.45.
For `Cc1ccncc1NC(=O)N1CCCCC[C@H]1c1noc(-c2cnn(C)c2)n1`, the “% Inhibition” value was -13% and the Z score was 1.46.
`Cc1cc(CN(C)C(=O)[C@H]2CC(=O)N(C(C)C)C2)no1` was tested, and the “% Inhibition” value was 1% and the Z score was -0.07.
For `CC(=O)NCc1ccc(C(=O)NC[C@](C)(O)C2CCCCC2)s1`, the “% Inhibition” value was -16% and the Z score was 1.57.
For `COCc1ncsc1C(=O)N1C[C@H](C)Oc2c(F)cccc21`, the “% Inhibition” value was 11% and the Z score was -1.62.
`COc1cccc([C@H](C(=O)O)N2CCC(c3nc4ccccc4n3C)CC2)c1` was tested, and the “% Inhibition” value was -3% and the Z score was 0.54.
`C[C@H]1CCC(=O)N1c1cccc(NC(=O)c2cc(C#N)c[nH]2)c1` was tested, and the “% Inhibition” value was -13% and the Z score was 2.01.
`CN1C(=O)COc2cc(NC(=O)N[C@H]3COC[C@@H]3N3CCCC3)ccc21` was tested, and the “% Inhibition” value was 16% and the Z score was -2.02.
`CC[C@@H](C(=O)O)N1CCC(OCCc2ccccc2)CC1` was tested, and the “% Inhibition” value was 0% and the Z score was 0.06.
For `COc1cc(NC(=O)[C@@H]2CCCN2C(=O)C2CCC(C)CC2)cc(OC)c1OC` (some centres not stated), the “% Inhibition” value was 29% and the Z score was -3.32.
In the case of `O=C(Nc1ccccc1N1CCCN(Cc2ccc(F)cc2)C1=O)c1ccco1`, the “% Inhibition” value is reported as -1% and the Z score is reported as 0.16.
In the case of `Cn1cc(CN2CCOCCNC(=O)CC2)c2ccccc21`, the “% Inhibition” value is reported as -5% and the Z score is reported as 0.66.
In the case of `CC(=O)Nc1onc(C)c1-c1ccc(C)c(S(=O)(=O)Nc2cccc(C)c2C)c1`, the “% Inhibition” value is reported as -9% and the Z score is reported as 1.31.
With `COc1ccc(CC(=O)N2CCC(COCc3ccc(Cl)cc3)CC2)cc1OC` the “% Inhibition” value was 16% and the Z score was -1.78.
With `NC(=O)c1ccc(N2CCOC3(CCCC3)C2)nn1` the “% Inhibition” value was 12% and the Z score was -1.42.
`CC(C)Cc1ncc(C(=O)Nc2snc3ncccc23)s1` was tested, and the “% Inhibition” value was 15% and the Z score was -2.9.
`CCCc1noc(C(C)NC2CCN(C(=O)CC)CC2C)n1` (configuration not stated) was tested, and the “% Inhibition” value was -12% and the Z score was 1.83.
In the case of `COc1cncc(C(=O)N(CC(F)(F)F)C2CCCC2)n1`, the “% Inhibition” value is reported as 1% and the Z score is reported as -0.17.
For `O=C(N1CCc2[nH]c3ccc(F)cc3c(=O)c2C1)C(F)(F)F`, the “% Inhibition” value was -1% and the Z score was 0.19.
With `COc1ccccc1CNC(=O)CN1CC[C@](C)(O)[C@@H](O)C1` the “% Inhibition” value was -10% and the Z score was 1.27.
In the case of `CNC(=O)CCC(C)(C)NC(=O)c1ccoc1`, the “% Inhibition” value is reported as -2% and the Z score is reported as 0.33.
In the case of `CC(C)c1noc(-c2cc(C3CC3)n(C)n2)n1`, the “% Inhibition” value is reported as -11% and the Z score is reported as 1.08.
`O=C(N[C@H]1CCOC[C@@H]1OCC1CCC1)c1nccnc1O` was tested, and the “% Inhibition” value was -20% and the Z score was 3.19.
With `CCn1ccc(C(=O)N2CCC[C@H](CN3CCC(C)CC3)CC2)n1` the “% Inhibition” value was -2% and the Z score was 0.39.
In the case of `CN1CCN(S(=O)(=O)c2ccc(Cl)cc2)C[C@H]1c1ccccc1`, the “% Inhibition” value is reported as 35% and the Z score is reported as -3.99.
`CN(C)CCNCCOCCOc1ccccc1` was tested, and the “% Inhibition” value was -5% and the Z score was 0.73.
With `COc1cccc([C@H]2CN(c3cc(C)ccn3)C[C@@H]2C(=O)O)c1OC` the “% Inhibition” value was -4% and the Z score was 0.43.
For `CN(C)c1cc(N[C@H]2CCC[C@@H]2N(C)C)ncn1`, the “% Inhibition” value was -4% and the Z score was 0.54.
For `CC(C1CC1)n1cc(NC(=O)N2CCC(C(F)(F)F)C2(C)C)cn1` (configuration not stated), the “% Inhibition” value was -10% and the Z score was 1.23.
For `CN(Cc1ccc(F)cc1Cl)C(N)=O`, the “% Inhibition” value was -9% and the Z score was 1.22.
`COc1cccc(Cl)c1-c1ncnc2sc(C)c(C)c12` was tested, and the “% Inhibition” value was -2% and the Z score was 0.23.
In the case of `Cc1cc(C)nc(NCCCC(=O)Nc2cnn(C)c2)n1`, the “% Inhibition” value is reported as -5% and the Z score is reported as 0.59.
With `CCCNc1nc(-c2ccc3c(c2)OCO3)cs1` the “% Inhibition” value was -4% and the Z score was 0.48.
`O=C(COc1ccccc1)N[C@H]1CC[C@H](Oc2cnccn2)CC1` was tested, and the “% Inhibition” value was -11% and the Z score was 1.27.
With `Cc1ncc(C)c(-c2cccc(-c3ccn(CCn4cccn4)n3)c2)n1` the “% Inhibition” value was -10% and the Z score was 1.47.
`COc1ccc2c(c1)CCCN(C(=O)N[C@H]1CCS(=O)(=O)C1)C2` was tested, and the “% Inhibition” value was 5% and the Z score was -0.44.
`CNS(=O)(=O)c1ccc2c(c1)CCN2` was tested, and the “% Inhibition” value was -14% and the Z score was 2.67.
In the case of `Cn1cc(CN2CCn3nc(CO)cc3C2)cn1`, the “% Inhibition” value is reported as -16% and the Z score is reported as 1.64.
For `OC(CN1CCCCC1Cn1cncn1)c1ccccc1F` (configuration not stated), the “% Inhibition” value was 4% and the Z score was -0.56.
In the case of `Cc1nc(C2CC(O)C2)cc(N2CCCCCCC2)n1` (configuration not stated), the “% Inhibition” value is reported as -1% and the Z score is reported as 0.11.
For `Cc1cnc([C@@H](Nc2ncc(C(F)(F)F)cc2Cl)C2CC2)s1`, the “% Inhibition” value was -9% and the Z score was 0.8.
With `CCOc1ccc(N2C[C@@H](c3nnc(NC(=O)c4cccc(Cl)c4)o3)CC2=O)cc1` the “% Inhibition” value was 4% and the Z score was -0.6.
With `O=C(O)c1ccc(CN2C[C@H]3COCC[C@@]3(O)[C@@H]3COCC[C@@H]32)cc1` the “% Inhibition” value was -4% and the Z score was 0.66.
For `Cc1ccc(-n2nc(C)c3nc(CCC(=O)NCCCN4CCCCC4)c(=O)n(C)c32)cc1`, the “% Inhibition” value was -9% and the Z score was 1.27.
For `CC(C)c1nnc(CN2CCN(C)S2(=O)=O)s1`, the “% Inhibition” value was -9% and the Z score was 1.73.
`CCCN(CC(=O)N1CCN(c2ccc(-c3cccc(OC)c3)nn2)CC1)S(=O)(=O)c1ccc(OC)cc1` was tested, and the “% Inhibition” value was -6% and the Z score was 0.95.
In the case of `O=C(O)c1ccc2[nH]c3c(c2c1)CN(C(=O)c1ccc2c(c1)CCOC2)CC3`, the “% Inhibition” value is reported as -3% and the Z score is reported as 0.51.
For `Cc1ccc(-c2nn(C)cc2C(=O)N[C@@H]2COC(C)(C)C2)o1`, the “% Inhibition” value was -4% and the Z score was 0.68.
In the case of `CC(C)Oc1ccc(C(=O)N(Cc2ccc(N(C)C)cc2)[C@H]2CCS(=O)(=O)C2)cc1`, the “% Inhibition” value is reported as -9% and the Z score is reported as 0.8.
